Experimental data: the supplement of paper PMC4206461
The other results are listed elsewhere or left out.

Test system: Pseudomonas aeruginosa PA14 dppA1-A5 penta deletion mutant
Test: respiration area under curve with compound as sole nitrogen source, 24 h (OmniLog AUC (arbitrary units)); higher = more respiration / better utilisation as nitrogen source, active = 2000 or more; extreme values may be limits of the assay
Settings: plate: PM6
Method: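 Biolog Phenotype MicroArray plates PM6-PM8: each di/tripeptide is the sole nitrogen source. Tetrazolium reduction was read in the OmniLog for 24 h at 37°C and summarised as area under the respiration curve (arbitrary units). Values below 2000 count as no respiration.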

Respiration area under curve, active:
CC(C)C[C@H](N)C(=O)NCC(=O)O 6030
C[C@H](N)C(=O)N[C@@H](Cc1c[nH]c2ccccc12)C(=O)O 4250
NCC(=O)N[C@@H](CO)C(=O)O 3360
CC[C@H](C)[C@H](N)C(=O)N[C@H](C(=O)O)C(C)C 2490

Respiration area under curve, inactive:
CC[C@H](C)[C@H](N)C(=O)NCC(=O)O 388
N[C@@H](CCC(=O)O)C(=O)N[C@@H](CCC(=O)O)C(=O)O 0
NCC(=O)N[C@@H](Cc1ccccc1)C(=O)O 689
NCC(=O)N[C@@H](Cc1c[nH]c2ccccc12)C(=O)O 289
CC[C@H](C)[C@H](N)C(=O)N[C@@H](Cc1c[nH]c2ccccc12)C(=O)O 1630
C[C@@H](O)[C@H](NC(=O)CN)C(=O)O 150

Same assay, conditions: plate: PM7

Respiration area under curve, inactive:
CSCCC(N)C(=O)NC(CCSC)C(=O)O (stereo unspecified) 0
N[C@@H](Cc1c[nH]c2ccccc12)C(=O)N[C@@H](CO)C(=O)O 938
C[C@@H](O)[C@H](N)C(=O)NCC(=O)O 170
C[C@@H](O)[C@H](N)C(=O)N1CCC[C@H]1C(=O)O 0
N[C@@H](Cc1c[nH]c2ccccc12)C(=O)N[C@@H](CC(=O)O)C(=O)O 78.9

Respiration area under curve, active:
CC(C)[C@H](N)C(=O)N[C@H](C(=O)O)C(C)C 3720
CC(C)CC(N)C(=O)NC(Cc1c[nH]c2ccccc12)C(=O)O (stereo unspecified) 8290
N[C@@H](CO)C(=O)NCC(=O)O 2330

Same assay, conditions: plate: PM8

Respiration area under curve, active:
CC[C@H](C)[C@H](N)C(=O)N[C@@H](CC(C)C)C(=O)O 2510
CC[C@H](C)[C@H](NC(=O)[C@@H](N)Cc1ccc(O)cc1)C(=O)O 6150
CC(C)C[C@H](NC(=O)[C@H](CC(C)C)NC(=O)[C@@H](N)CC(C)C)C(=O)O 3770
NCC(=O)N[C@@H](Cc1ccccc1)C(=O)N[C@@H](Cc1ccccc1)C(=O)O 4510

Respiration area under curve, inactive:
CC(NC(=O)C(N)CC(=O)O)C(=O)O (stereo unspecified) 215
NCC(=O)NCC(=O)NCC(=O)O 51
O=C(O)[C@H](Cc1c[nH]c2ccccc12)NC(=O)[C@@H]1CCCN1 492
N[C@@H](Cc1ccccc1)C(=O)N[C@@H](CCC(=O)O)C(=O)O 0
CC(C)[C@H](N)C(=O)N[C@@H](CCC(N)=O)C(=O)O 1150
C[C@H](NC(=O)CNC(=O)CN)C(=O)O 328
C[C@@H](N)C(=O)NCC(=O)O 0
NCC(=O)N[C@H](CO)C(=O)O 0
O=C(O)[C@H](CO)NC(=O)[C@@H]1CCCN1 371
